# In PubChem BioAssay AID1745853 (National Center for Advancing Translational Sciences (NCATS), 2022):
# This is one part of the list. Further columns of the screen follow, without active or inactive calls.
# Key:
# Test in all cases: Primary Screen for Target Class Profiling of Small Molecule Inhibitors of Methyltransferases
# [1] = biological target: Glycine N-methyltransferase (Homo sapiens) (UniProt Q14749); settings: purified enzyme, MTase-Glo SAH luminescence; measured here: GNMT inhibition; at 40 µM; stronger effect = lower value
# Summary of the method: (§1)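 Each enzyme was assayed with SAM and its substrate. SAH formation detected by MTase-Glo luminescence; single-point 40 uM screen[…].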
# [2] = biological target: Histamine N-methyltransferase (Homo sapiens) (UniProt P50135); settings: purified enzyme, MTase-Glo SAH luminescence; measured here: HNMT inhibition; at 40 µM; stronger effect = lower value
# Summary of the method: as §1
# [3] = biological target: Guanidinoacetate N-methyltransferase (Homo sapiens) (UniProt Q14353); settings: purified enzyme, MTase-Glo SAH luminescence; measured here: GAMT inhibition; at 40 µM; stronger effect = lower value
# Summary of the method: as §1
# [4] = biological target: Nicotinamide N-methyltransferase (Homo sapiens) (UniProt P40261); settings: purified enzyme, MTase-Glo SAH luminescence; measured here: NNMT inhibition; at 40 µM; stronger effect = lower value
# Summary of the method: as §1
# [5] = biological target: Phenylethanolamine N-methyltransferase (Homo sapiens) (UniProt P11086); settings: purified enzyme, MTase-Glo SAH luminescence; measured here: PNMT inhibition; at 40 µM; stronger effect = lower value
# Summary of the method: as §1
# % is scaled to controls: 0 for no effect and ±100 for the full control effect.
SMILES,"activity change, negative = inhibition [1]","activity change, negative = inhibition [2]","activity change, negative = inhibition [3]","activity change, negative = inhibition [4]","activity change, negative = inhibition [5]"
N#CCC(C1CCCC1)n1cc(-c2ncnc3[nH]ccc23)cn1 (stereo not given),-1.73%,-9%,–,–,–
COc1ccc(OC)c(CCN2C(=O)c3cc4sccc4n3CC2(C)C(=O)NC2CCCC2)c1 (stereo not given),-6.4%,-7.31%,5.35%,-11.2%,-10.4%
COc1ccc(-c2cc3n(n2)CC(C)(C(=O)NCc2ccccc2)N(Cc2ccccc2Cl)C3=O)cc1 (stereo not given),-5.78%,-3.51%,3.18%,-6.4%,-4.24%
COc1ncccc1-c1cc(-c2c(C)noc2C)c2cncn2c1,-19.4%,-8.14%,-10.9%,-24.9%,-30.8%
N[C@H](C(=O)O)[C@H](O)C(=O)O,12.1%,13.3%,13.3%,-4.94%,1.08%
COC1CC(=O)C23C(=O)NC(Cc4c[nH]c5ccccc45)C2C(C)C2(C)OC2C3/C=C/CC(C)CC1O (stereo not given),-3.02%,7.35%,-2.06%,-16.3%,-6.2%
Cc1ccc(Cn2c(=O)c3ccccc3n3c(CCC(=O)Nc4ccccc4)nnc23)cc1,-5.67%,3.64%,5.82%,2.58%,-2.92%
COC(=O)c1ccc(CNC(=O)CC2c3cccnc3C(=O)N2c2ccccc2)cc1 (stereo not given),-3.44%,-0.754%,-2.17%,-13.8%,-0.478%
CN1C(=O)c2cc(C(=O)NCc3cccc(Cl)c3)nn2CC1(C)C(=O)NCc1ccccc1 (stereo not given),-3.15%,-3.12%,0%,-2.59%,-1.55%
O=S(=O)(c1ccc2[nH]c3c(c2c1)CCCC3)N1CCOc2ccc(Cl)cc21,13%,8.4%,2.07%,-0.144%,7.44%
COC(=O)N1CCC2(C1)N=C(c1ccncc1)C(=O)N2 (stereo not given),-5.1%,-3.58%,-6.93%,-9.67%,-7.28%
CC(C)Cn1c(=O)c2ccccc2n2c(CCC(=O)N3CCN(Cc4ccccc4)CC3)nnc12,-11.2%,4.02%,3.32%,-37.6%,-0.692%
CC1=C(C(=O)Nc2cc3cn[nH]c3cc2F)C(c2ccc(Cl)cc2F)N=C(c2ccnc(Cl)c2)N1 (stereo not given),-5.02%,4.01%,2.44%,-28.3%,-25%
Cc1nnc(-c2cc(-c3ccccc3Oc3ccccc3)ccn2)n1C,-14.2%,-13.9%,-7.16%,-29.3%,-12.9%
CCC(C(=O)NCc1ccco1)n1ccc2cc(S(=O)(=O)N3CCCCC3)ccc21 (stereo not given),-3.54%,0.454%,4.26%,-1.59%,-0.334%
CC1CCCCN1CCCN1C(=O)c2cc3occc3n2CC1(C)C(=O)NC1CCCCCCC1 (stereo not given),2.65%,0.269%,-0.069%,0.101%,2.3%
Cc1ccc2c(Nc3ccc(Cl)cc3)nccc2c1Nc1ncccc1-c1ncnc2nc[nH]c12,6.72%,11.9%,2.57%,-19.4%,5.17%
CCN(CC)C(=O)CC[C@@H]1CNC(=O)[C@@H]2C[C@H](NC(=O)Nc3ccsc3)CN12,-6.33%,-2.43%,-8%,-7.87%,-5.22%
COC(=O)C1=CO[C@@H](O[C@@H]2O[C@H](CO)[C@@H](O)[C@H](O)[C@H]2O)[C@@H]2C(C)CC(=O)[C@]12O (stereo not given in full),-3.52%,1.11%,-11%,-17.7%,-2.91%
O=C1CC(c2noc(-c3cccs3)n2)CN1C1CCCCC1 (stereo not given),-0.132%,-3.02%,4.11%,-5.58%,-2.32%
COc1ccc(NC(=O)CSc2nnc3n(CC(C)C)c(=O)c4ccccc4n23)cc1,-7.05%,13.8%,0%,1.52%,4.22%
CC(C)(C)c1ccc(S(=O)(=O)Nc2ccc(-n3ccnc3)cc2)cc1,–,–,3.24%,-33%,-9.72%
CC(C)CCN1C(=O)c2ccc(-c3ccco3)n2CC1(C)C(=O)NC1CCCC1 (stereo not given),-12.3%,4.23%,-1.99%,-11.5%,-6.62%
C[C@@H](N)C(=O)N1CCC2(CC1)CC(=O)N(Cc1cc(F)cc(F)c1)C2,-0.996%,1.01%,-2.85%,3.35%,-3.51%
Cc1cc(-c2nc(-c3ccc(OC(F)(F)F)cc3)no2)nn1Cc1ccnc(N2CCN(C3CC3)CC2)c1,-3.63%,7.36%,-8.78%,-23.2%,-3.88%
O=C(CSc1nnc2n(CCc3ccccc3)c(=O)c3ccccc3n12)Nc1ccc(F)cc1F,-2.75%,9.04%,0%,-5.25%,4.38%
Cn1nc2n(c1=O)CCC(NC(=O)c1n[nH]c3c1CC(C(C)(C)C)CC3)CC2 (stereo not given),-1.96%,-2.24%,-3.03%,-13.6%,-1.04%
CO[C@H]1[C@@H](O)[C@H](O[C@H]2CC[C@@]3(C)C(CCC4C3CC[C@]35COC6(COC(=O)C6)C3CCC45O)C2)O[C@@H](C)[C@@H]1OC1OC(CO)C(OC2OC(CO)C(O)C(O)C2O)C(O)C1O (stereo not given in full),1.49%,13.3%,-1.97%,-12.3%,-8.65%
CCc1ccc(N2C(=O)c3cc(C(=O)OC)nn3CC2(C)C(=O)NC2CCCCCC2)cc1 (stereo not given),-1.99%,5.16%,0%,-3.42%,-3.93%
O=C(NC1CCN(Cc2ccccc2)CC1)c1cccc2c1CCN2C(=O)c1ccccc1,-5.68%,-37.1%,-0.382%,-11.8%,-1.6%
